Measured values taken from article PMC4336329 (PLoS ONE, 2015).
Hit rate of the full screen: of about 310,000 compounds, about 2,200 (0.71%) showed an effect of 50% or more. The effect is printed as a negative number. The list shows a part of the results.

biological target: human ether-à-go-go-related gene (hERG) potassium channel (human, UniProt Q12809); experiment: primary screen, population patch clamp on CHO cells stably expressing hERG
Sequence (Q12809 whole entry, looked up): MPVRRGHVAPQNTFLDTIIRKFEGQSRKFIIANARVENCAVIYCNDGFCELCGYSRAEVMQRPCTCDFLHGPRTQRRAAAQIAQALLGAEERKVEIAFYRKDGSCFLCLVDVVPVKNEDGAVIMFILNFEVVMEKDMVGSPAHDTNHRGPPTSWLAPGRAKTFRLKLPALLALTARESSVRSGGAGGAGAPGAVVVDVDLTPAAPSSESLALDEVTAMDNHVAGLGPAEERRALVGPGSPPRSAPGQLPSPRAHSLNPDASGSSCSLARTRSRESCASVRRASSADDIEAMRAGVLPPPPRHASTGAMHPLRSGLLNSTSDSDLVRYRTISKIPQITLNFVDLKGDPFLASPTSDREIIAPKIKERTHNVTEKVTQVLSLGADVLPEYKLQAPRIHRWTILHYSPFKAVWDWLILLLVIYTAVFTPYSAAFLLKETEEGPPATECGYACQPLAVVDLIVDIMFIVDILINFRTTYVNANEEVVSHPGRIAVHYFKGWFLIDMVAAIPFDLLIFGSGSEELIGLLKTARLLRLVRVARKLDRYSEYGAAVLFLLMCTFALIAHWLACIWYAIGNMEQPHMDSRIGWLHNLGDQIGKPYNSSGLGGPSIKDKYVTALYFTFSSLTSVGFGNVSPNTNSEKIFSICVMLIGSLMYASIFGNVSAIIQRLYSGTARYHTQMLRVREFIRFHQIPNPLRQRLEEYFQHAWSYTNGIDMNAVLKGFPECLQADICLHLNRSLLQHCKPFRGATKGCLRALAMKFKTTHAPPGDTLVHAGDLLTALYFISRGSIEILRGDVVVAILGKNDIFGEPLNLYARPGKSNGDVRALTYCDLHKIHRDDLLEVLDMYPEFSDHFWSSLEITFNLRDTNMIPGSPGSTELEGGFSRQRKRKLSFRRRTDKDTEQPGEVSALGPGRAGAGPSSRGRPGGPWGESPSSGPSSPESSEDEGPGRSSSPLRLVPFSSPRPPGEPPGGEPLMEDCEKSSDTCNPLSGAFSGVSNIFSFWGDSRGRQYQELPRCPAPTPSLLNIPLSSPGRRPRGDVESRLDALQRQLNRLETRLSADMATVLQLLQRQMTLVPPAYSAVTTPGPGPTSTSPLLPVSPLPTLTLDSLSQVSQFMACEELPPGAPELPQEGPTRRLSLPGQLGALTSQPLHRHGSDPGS

First: Cc1ccc(N2CCN(c3ccc(C)cc3)C2c2ccccn2)cc1
Second: Cc1ccc(CN2CC(C(=O)Nc3ncccc3C)CC2=O)cc1 (stereo not shown)
The “hERG current change (%, negative = inhibition) at 1uM” value of the first is higher: 4.25% for the first, -3.17% for the second.

Compared with `Br.OCCn1c(-c2ccccc2)csc1=Nc1ccccc1`, `O=P(Cc1ccccc1O)(c1ccccc1)c1ccccc1` is higher in “hERG current change (%, negative = inhibition) at 1uM” value: -7.29% for the first, 15.5% for the second.

Going from `O=C(CSc1nc2ccccc2s1)NCCOc1ccccc1` to `CCn1c(CNC(=O)c2ccccc2)nc2ccccc21`, the “hERG current change (%, negative = inhibition) at 1uM” value rises from 0.807% to 6.8%.

First: COc1ccc(N(CC(=O)NCCSCc2ccco2)S(=O)(=O)c2ccccc2)cc1
Second: Cc1ccc(N(CCC(=O)Nc2nnc(C3CC3)s2)S(=O)(=O)c2ccccc2)cc1
The “hERG current change (%, negative = inhibition) at 1uM” value of the first is higher: 4.63% for the first, -2.13% for the second.

First: Cc1cccc(CCNC(=O)C2CCC(=O)N(Cc3ccc(Cl)cc3)C2)n1 (stereo not shown)
Second: O=C(Cn1nc(-c2ccc(Cl)cc2)ccc1=O)NCCN1CCOCC1
The “hERG current change (%, negative = inhibition) at 1uM” value of the first is lower: 8.54% for the first, 11.7% for the second.

Compared with `CCSc1ccc([C@@H]2[C@H]3C(=O)N(C)C(=O)[C@H]3[C@]3(C(=O)OC)CCCCN23)cc1OC.O=C(O)C(F)(F)F`, `COc1cc2c(C(=O)N3CCN(c4cccc(Cl)c4)CC3)cn(CC(C)C)c(=O)c2cc1OC` is lower in “hERG current change (%, negative = inhibition) at 1uM” value: 11.2% for the first, -5.96% for the second.

Going from `N#Cc1ccc(OCC(=O)N/N=C/C2CC=CCC2)cc1` (stereo not shown) to `CCOC(=O)c1cnc(-n2nc(C)cc2C)nc1Nc1ccc(OC)cc1`, the “hERG current change (%, negative = inhibition) at 1uM” value falls from 9.88% to -10.8%.

Compared with `CN(NC(=O)Nc1ccccc1)c1cnn(C)c(=O)c1Cl`, `Cc1ncc([N+](=O)[O-])n1CC(=O)Nc1ccccc1` is higher in “hERG current change (%, negative = inhibition) at 1uM” value: 7.29% for the first, 10.7% for the second.

Compared with `Cn1c(=O)c2c(SCC(=O)Nc3cccc(F)c3)nc(-c3ccco3)nc2n(C)c1=O`, `Cc1ccc(NC(=O)CSc2nnc(Cn3c(=O)sc4ccccc43)n2C)cc1` is higher in “hERG current change (%, negative = inhibition) at 1uM” value: 6.85% for the first, 10.2% for the second.

Compared with `COc1ccc(-c2csc(NC(=O)CCCc3nc4ccccc4c(=O)[nH]3)n2)cc1OC`, `CC(Oc1ccc2c(-c3ccccc3)cc(=O)oc2c1)C(=O)NCCCn1ccnc1` (stereo not shown) is lower in “hERG current change (%, negative = inhibition) at 1uM” value: 5.14% for the first, -14.1% for the second.

Going from `O=S(=O)(NC1CCCCC1Nc1ccc(Cl)cc1)c1ccccc1` (stereo not shown) to `O=C(O)c1ccc(F)c(S(=O)(=O)Nc2ccccc2)c1`, the “hERG current change (%, negative = inhibition) at 1uM” value falls from 20.4% to 1.03%.

First: COc1ccccc1-c1nc(C#N)c(N2CCN(C(c3ccccc3)c3ccccc3)CC2)o1
Second: COc1ccc(N2C(=O)C(CN3CCN(C)CC3)C2c2ccccc2)cc1 (stereo not shown)
The “hERG current change (%, negative = inhibition) at 1uM” value of the first is higher: 4.3% for the first, -19% for the second.

Compared with `CN(C(=O)c1ccc2c(c1)OCO2)C1(C(=O)NC2CCCC2)CCCCC1`, `O=C(c1ccc2c(c1)ncn2C1CCCCC1)N1CCC2(CC1)OCCO2` is lower in “hERG current change (%, negative = inhibition) at 1uM” value: 5.78% for the first, 0.618% for the second.

First: Cc1ccc(NC(=O)c2cnccn2)nc1
Second: COc1cc(OC)c(/C=N/NC(=O)c2ccncc2)cc1Br
The “hERG current change (%, negative = inhibition) at 1uM” value of the first is lower: 4.96% for the first, 12.2% for the second.

Compared with `Nc1cc(Oc2ccc(Cl)cc2Cl)nc(N)n1`, `CCC(C)Nc1nc(Cl)nc(NCCOc2ccccc2)n1` (stereo not shown) is higher in “hERG current change (%, negative = inhibition) at 1uM” value: 3.09% for the first, 5.41% for the second.

Going from `C=CCOc1c(Cl)cc(/C=N/O)cc1OC` to `CC1CCCC(C)N1/N=C/c1ccc(O)c(O)c1` (stereo not shown), the “hERG current change (%, negative = inhibition) at 1uM” value falls from 9.51% to 6.2%.

First: O=C1CN(C(=O)c2ccc(Br)o2)C(c2ccc(F)cc2)c2cc(Cl)ccc2N1 (stereo not shown)
Second: Cc1c(NC(=O)CSc2ccc(Cl)cc2)cccc1-c1nc2ncccc2o1
The “hERG current change (%, negative = inhibition) at 1uM” value of the first is higher: 11.6% for the first, -3.27% for the second.

Going from `NC(=NC(=O)c1cccc(C(F)(F)F)c1)c1ccc(C(F)(F)F)cn1` to `CNS(=O)(=O)c1ccc(NC(=O)c2csc(C)c2)cc1`, the “hERG current change (%, negative = inhibition) at 1uM” value rises from 3.86% to 10.6%.

Going from `CC(C)CN(C(=O)COC(=O)c1c(Cl)ccc(Cl)c1Cl)C1CCS(=O)(=O)C1` (stereo not shown) to `Cc1cc(C(=O)OCC(=O)Nc2ccccc2C)c(C)o1`, the “hERG current change (%, negative = inhibition) at 1uM” value rises from 5.48% to 7.9%.

Compared with `COCc1cc(C)nc(SCC(=O)Nc2cc(C(F)(F)F)ccc2N2CCOCC2)c1C#N`, `O=C(c1cc(-c2cccc(O)c2)on1)N1CCOCC1` is higher in “hERG current change (%, negative = inhibition) at 1uM” value: -8.37% for the first, 20% for the second.

First: COc1cccc(N2CCN(C3CC(=O)N(c4ccc(C)c(Cl)c4)C3=O)CC2)c1 (stereo not shown)
Second: COc1ccc(Nc2nc(Cl)nc(N3CCN(c4ccc(OC)cc4)CC3)n2)cc1
The “hERG current change (%, negative = inhibition) at 1uM” value of the first is lower: -0.815% for the first, 7.65% for the second.

First: CCOC(=O)NC(=S)Nc1ccc(C(C)(C)C)cc1Br
Second: Cc1ccccc1NC(=O)Cn1c(NCC(C)O)nc2ccccc21 (stereo not shown)
The “hERG current change (%, negative = inhibition) at 1uM” value of the first is higher: 12% for the first, -3.14% for the second.

Compared with `CCc1ccc(C(O)(CNCc2ccccc2)c2ccccc2)cc1` (stereo not shown), `CCOc1ccccc1CN(CCc1ccc2c(c1)OCO2)Cc1ccccn1` is lower in “hERG current change (%, negative = inhibition) at 1uM” value: 6% for the first, -13.6% for the second.

Compared with `Cc1ccc(S(=O)(=O)CCc2nnc(NC(=O)c3cccs3)s2)cc1`, `O=C(c1cccs1)N1CCN(CCc2ccccc2)CC1` is lower in “hERG current change (%, negative = inhibition) at 1uM” value: 1.33% for the first, -24.7% for the second.

Going from `C1=C(CCNCC2CC2)CCCC1.Cl` to `CCOC(=O)C1CCCN(CCCc2ccccc2)C1.Cl` (stereo not shown), the “hERG current change (%, negative = inhibition) at 1uM” value falls from -4.41% to -14.7%.

Going from `COC(=O)CCCCC(=O)C1C(=O)CC(C)(C)C(C(=O)OC)C1=O` (stereo not shown) to `CCN(C(=O)c1ccc(=O)[nH]c1)c1c(N)n(Cc2ccccc2)c(=O)[nH]c1=O`, the “hERG current change (%, negative = inhibition) at 1uM” value falls from 7.77% to 6.12%.

First: CN(C(=O)/C=C/c1ccccc1)C1CCCCC1
Second: O=C(NCC1CC1)c1cc(-c2ccccc2)nn1CC1CC(c2cccc([N+](=O)[O-])c2)=NO1 (stereo not shown)
The “hERG current change (%, negative = inhibition) at 1uM” value of the first is higher: 11.3% for the first, -4.28% for the second.

Compared with `COc1cccc(-c2nc(-c3ccccc3)no2)c1`, `c1coc(CNc2nc(-c3ccncc3)cs2)c1` is lower in “hERG current change (%, negative = inhibition) at 1uM” value: 9.7% for the first, 2.54% for the second.

Compared with `Cc1cc(/C=C2\C(=O)NC(=O)N(C)C2=O)c(C)n1-c1ccc2c(c1)OCO2`, `CC1CCCN(S(=O)(=O)c2ccc(Cl)s2)C1` (stereo not shown) is lower in “hERG current change (%, negative = inhibition) at 1uM” value: 13.5% for the first, 12% for the second.
